Results are given in words; binding and its absence hold for the method and conditions named. Binding seen in cells or lysates may run through a third protein. Some entries that bind do so weakly or less than the wild type. For some of these results: Sequences can lack the tags named with a protein. Values belong to the molecule of their own block, whether it stands above or below them.
How the values were obtained:
Flag-tagged USP28 = Flag-tagged USP28 (UniProt Q96RU2); test: co-IP; tagged proteins co-expressed in HEK293 cells; IP with Myc, HA or Flag antibody, western blot; IP buffer 50 mM Tris pH 7.5, 150 mM NaCl, 1% NP-40, 1 mM EDTA, 0.25% deoxycholate; overnight at 4°C
Flag-tagged Dub3 = biological target: T1, Flag-tagged Dub3 (UniProt Q6R6M4); test: as above
T1 sequence: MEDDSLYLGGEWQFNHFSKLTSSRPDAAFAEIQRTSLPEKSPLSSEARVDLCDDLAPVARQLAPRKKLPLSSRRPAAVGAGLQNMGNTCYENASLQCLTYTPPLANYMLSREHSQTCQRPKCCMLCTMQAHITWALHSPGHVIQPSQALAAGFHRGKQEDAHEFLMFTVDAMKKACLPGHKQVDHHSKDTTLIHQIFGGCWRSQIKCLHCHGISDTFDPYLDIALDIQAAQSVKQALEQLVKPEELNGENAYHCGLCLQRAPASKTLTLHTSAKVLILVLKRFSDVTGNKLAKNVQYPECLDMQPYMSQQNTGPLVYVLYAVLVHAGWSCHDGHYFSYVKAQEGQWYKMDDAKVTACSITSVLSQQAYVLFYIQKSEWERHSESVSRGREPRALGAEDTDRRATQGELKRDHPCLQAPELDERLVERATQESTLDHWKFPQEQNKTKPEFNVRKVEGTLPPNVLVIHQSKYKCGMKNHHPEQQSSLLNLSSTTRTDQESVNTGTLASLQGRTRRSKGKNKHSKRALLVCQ

Amino acid sequences for entries named in this document (tags omitted).
UniProt Q96RU2: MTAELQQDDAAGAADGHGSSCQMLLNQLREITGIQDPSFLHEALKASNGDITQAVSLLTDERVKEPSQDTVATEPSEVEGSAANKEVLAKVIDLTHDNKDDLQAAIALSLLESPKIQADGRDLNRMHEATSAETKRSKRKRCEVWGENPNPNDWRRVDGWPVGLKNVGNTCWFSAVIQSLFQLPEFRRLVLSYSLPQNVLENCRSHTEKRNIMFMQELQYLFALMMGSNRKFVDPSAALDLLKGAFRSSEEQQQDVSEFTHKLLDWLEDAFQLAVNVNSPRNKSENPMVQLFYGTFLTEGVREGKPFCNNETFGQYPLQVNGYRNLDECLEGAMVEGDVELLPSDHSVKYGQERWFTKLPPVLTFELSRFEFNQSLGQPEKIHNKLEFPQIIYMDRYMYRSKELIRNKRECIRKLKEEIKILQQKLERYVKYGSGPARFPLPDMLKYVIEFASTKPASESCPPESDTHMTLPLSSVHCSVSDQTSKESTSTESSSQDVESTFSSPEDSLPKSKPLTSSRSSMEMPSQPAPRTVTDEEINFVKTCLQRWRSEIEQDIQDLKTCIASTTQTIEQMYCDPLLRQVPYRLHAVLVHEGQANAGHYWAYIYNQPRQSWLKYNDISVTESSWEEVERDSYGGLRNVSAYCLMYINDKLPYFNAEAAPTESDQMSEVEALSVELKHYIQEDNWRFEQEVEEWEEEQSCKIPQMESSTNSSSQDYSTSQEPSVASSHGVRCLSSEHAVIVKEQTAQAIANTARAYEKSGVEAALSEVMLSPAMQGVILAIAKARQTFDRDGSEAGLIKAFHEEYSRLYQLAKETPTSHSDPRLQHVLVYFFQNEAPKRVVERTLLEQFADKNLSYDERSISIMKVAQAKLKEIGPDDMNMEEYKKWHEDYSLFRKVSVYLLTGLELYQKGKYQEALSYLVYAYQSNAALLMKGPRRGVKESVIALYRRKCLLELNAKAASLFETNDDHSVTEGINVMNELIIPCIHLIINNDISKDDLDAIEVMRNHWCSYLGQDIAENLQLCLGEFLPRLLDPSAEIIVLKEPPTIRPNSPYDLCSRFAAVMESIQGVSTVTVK
UniProt Q15672: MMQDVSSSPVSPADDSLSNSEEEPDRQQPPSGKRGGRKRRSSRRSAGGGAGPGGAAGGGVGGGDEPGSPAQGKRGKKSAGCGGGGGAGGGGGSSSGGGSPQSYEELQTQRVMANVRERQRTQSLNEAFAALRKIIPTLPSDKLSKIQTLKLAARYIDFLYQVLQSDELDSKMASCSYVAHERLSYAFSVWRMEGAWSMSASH

Myc-Dub3 = biological target: T2, Myc-Dub3 (UniProt Q6R6M4); test: as above
T2 sequence: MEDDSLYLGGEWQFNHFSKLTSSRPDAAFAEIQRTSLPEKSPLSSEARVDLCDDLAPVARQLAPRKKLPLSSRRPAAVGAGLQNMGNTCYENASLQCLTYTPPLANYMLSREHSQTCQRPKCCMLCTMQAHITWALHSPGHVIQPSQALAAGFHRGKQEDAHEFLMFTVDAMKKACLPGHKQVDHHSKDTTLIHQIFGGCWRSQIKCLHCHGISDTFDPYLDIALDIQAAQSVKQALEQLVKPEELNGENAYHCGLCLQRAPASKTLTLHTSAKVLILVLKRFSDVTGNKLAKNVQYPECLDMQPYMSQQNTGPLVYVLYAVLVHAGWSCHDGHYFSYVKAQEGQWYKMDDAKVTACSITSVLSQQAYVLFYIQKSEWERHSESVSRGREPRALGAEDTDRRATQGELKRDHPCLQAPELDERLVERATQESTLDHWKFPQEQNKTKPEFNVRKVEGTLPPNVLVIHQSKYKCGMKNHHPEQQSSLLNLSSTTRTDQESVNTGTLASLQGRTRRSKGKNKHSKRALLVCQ

[1] = biological target: T3, Endogenous Dub3 (human (endogenous in MDA-MB157 and SUM159)) (UniProt Q6R6M4); test: co-IP; endogenous proteins immunoprecipitated from MDA-MB157 and SUM159 cells, western blot
T3 sequence: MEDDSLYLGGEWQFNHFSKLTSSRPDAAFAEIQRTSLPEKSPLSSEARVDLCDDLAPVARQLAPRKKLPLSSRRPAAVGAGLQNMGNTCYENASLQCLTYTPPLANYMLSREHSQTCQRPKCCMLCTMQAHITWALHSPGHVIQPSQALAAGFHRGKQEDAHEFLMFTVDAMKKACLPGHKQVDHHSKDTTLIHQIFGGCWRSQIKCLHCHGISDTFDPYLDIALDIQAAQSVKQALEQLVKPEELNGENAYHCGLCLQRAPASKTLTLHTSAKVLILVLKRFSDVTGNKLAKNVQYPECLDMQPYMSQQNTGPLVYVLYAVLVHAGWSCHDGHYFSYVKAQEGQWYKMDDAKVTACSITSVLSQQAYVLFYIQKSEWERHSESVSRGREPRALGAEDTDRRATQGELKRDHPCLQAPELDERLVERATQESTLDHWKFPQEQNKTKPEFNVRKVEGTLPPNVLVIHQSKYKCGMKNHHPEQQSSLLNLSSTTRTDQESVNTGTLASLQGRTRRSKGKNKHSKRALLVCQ

HA-tagged USP28 = HA-tagged USP28 (UniProt Q96RU2); test: co-IP; tagged proteins co-expressed in HEK293 cells; IP with Myc, HA or Flag antibody, western blot; IP buffer 50 mM Tris pH 7.5, 150 mM NaCl, 1% NP-40, 1 mM EDTA, 0.25% deoxycholate; overnight at 4°C
HA-tagged Dub3 = biological target: T4, HA-tagged Dub3 (UniProt Q6R6M4); test: as above
T4 sequence: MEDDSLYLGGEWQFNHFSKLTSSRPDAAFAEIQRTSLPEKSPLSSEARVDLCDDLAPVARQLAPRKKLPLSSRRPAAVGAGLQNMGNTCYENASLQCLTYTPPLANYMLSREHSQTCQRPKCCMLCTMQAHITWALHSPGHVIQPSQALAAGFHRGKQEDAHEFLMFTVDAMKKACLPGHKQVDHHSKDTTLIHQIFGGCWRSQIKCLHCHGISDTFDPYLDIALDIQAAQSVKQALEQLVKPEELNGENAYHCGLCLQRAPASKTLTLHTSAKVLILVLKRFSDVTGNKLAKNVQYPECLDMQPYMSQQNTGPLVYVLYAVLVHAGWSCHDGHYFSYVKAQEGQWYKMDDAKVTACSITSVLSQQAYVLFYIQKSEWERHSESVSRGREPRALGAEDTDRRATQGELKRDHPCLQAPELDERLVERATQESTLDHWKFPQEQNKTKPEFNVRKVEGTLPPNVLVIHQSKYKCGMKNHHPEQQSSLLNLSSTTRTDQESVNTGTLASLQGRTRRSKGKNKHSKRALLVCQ

HA-tagged Twist = HA-tagged Twist (UniProt Q15672); test: as above
Flag-tagged Slug = biological target: T5, Flag-tagged Slug (UniProt O43623); test: as above
T5 sequence: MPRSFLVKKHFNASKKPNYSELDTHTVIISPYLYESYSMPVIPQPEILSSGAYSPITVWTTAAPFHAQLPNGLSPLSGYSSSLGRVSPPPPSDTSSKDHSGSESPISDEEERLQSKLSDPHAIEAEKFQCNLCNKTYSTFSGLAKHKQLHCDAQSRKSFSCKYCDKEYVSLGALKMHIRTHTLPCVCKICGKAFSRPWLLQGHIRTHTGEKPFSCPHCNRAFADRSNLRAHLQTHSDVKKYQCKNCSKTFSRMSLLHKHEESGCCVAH

- binding (Flag-tagged USP28): no binding
- binding (Flag-tagged Dub3): binds
- binding (Myc-Dub3): binds
Molecule: HA-tagged Twist (from UniProt Q15672 1-202)

- binding [1]: binds
Molecule: Endogenous Twist (from UniProt Q15672 1-202)

- binding (HA-tagged USP28): no binding
- binding (HA-tagged Dub3): binds
- binding (Myc-Dub3): binds
B1: Flag-tagged Slug (protein, UniProt O43623 1-268)
chain: MPRSFLVKKHFNASKKPNYSELDTHTVIISPYLYESYSMPVIPQPEILSSGAYSPITVWTTAAPFHAQLPNGLSPLSGYSSSLGRVSPPPPSDTSSKDHSGSESPISDEEERLQSKLSDPHAIEAEKFQCNLCNKTYSTFSGLAKHKQLHCDAQSRKSFSCKYCDKEYVSLGALKMHIRTHTLPCVCKICGKAFSRPWLLQGHIRTHTGEKPFSCPHCNRAFADRSNLRAHLQTHSDVKKYQCKNCSKTFSRMSLLHKHEESGCCVAH

- binding [1]: binds
B2: Endogenous Slug (protein, UniProt O43623 1-268)
chain: MPRSFLVKKHFNASKKPNYSELDTHTVIISPYLYESYSMPVIPQPEILSSGAYSPITVWTTAAPFHAQLPNGLSPLSGYSSSLGRVSPPPPSDTSSKDHSGSESPISDEEERLQSKLSDPHAIEAEKFQCNLCNKTYSTFSGLAKHKQLHCDAQSRKSFSCKYCDKEYVSLGALKMHIRTHTLPCVCKICGKAFSRPWLLQGHIRTHTGEKPFSCPHCNRAFADRSNLRAHLQTHSDVKKYQCKNCSKTFSRMSLLHKHEESGCCVAH

- binding (HA-tagged Twist): binds
- binding (Flag-tagged Slug): binds
B3: Myc-Dub3 (enzyme, UniProt Q6R6M4 1-530)
chain: MEDDSLYLGGEWQFNHFSKLTSSRPDAAFAEIQRTSLPEKSPLSSEARVDLCDDLAPVARQLAPRKKLPLSSRRPAAVGAGLQNMGNTCYENASLQCLTYTPPLANYMLSREHSQTCQRPKCCMLCTMQAHITWALHSPGHVIQPSQALAAGFHRGKQEDAHEFLMFTVDAMKKACLPGHKQVDHHSKDTTLIHQIFGGCWRSQIKCLHCHGISDTFDPYLDIALDIQAAQSVKQALEQLVKPEELNGENAYHCGLCLQRAPASKTLTLHTSAKVLILVLKRFSDVTGNKLAKNVQYPECLDMQPYMSQQNTGPLVYVLYAVLVHAGWSCHDGHYFSYVKAQEGQWYKMDDAKVTACSITSVLSQQAYVLFYIQKSEWERHSESVSRGREPRALGAEDTDRRATQGELKRDHPCLQAPELDERLVERATQESTLDHWKFPQEQNKTKPEFNVRKVEGTLPPNVLVIHQSKYKCGMKNHHPEQQSSLLNLSSTTRTDQESVNTGTLASLQGRTRRSKGKNKHSKRALLVCQ

— PMC5650406
